Data reported in the supplement of paper PMC10338343.
± gives the standard deviation. The entries are a selection whose mix differs from that of the whole data set.

system: MIWI (PIWIL1) piRISC loaded with piRNA #1 (30 nt); assay: pre-steady-state target cleavage rate (min^-1); MIWI and MILI are mouse PIWI proteins and EfPiwi is from a freshwater sponge; tags in brackets are library labels; higher = faster piRNA-guided slicing of the target; conditions: guide: piRNA #1 5'p-UGAGGUAGUAGGUUGUAUAGUAUCCAGAGG; auxiliary factor: 500 nM mouse GTSF1
In short: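 A burst-and-steady-state fit was used to obtain the pre-steady-state cleavage rate. The input data were sequencing reads of uncleaved targets, normalised to depth and to weakly complementary targets, from a […] transcribed, DNA-blocked target RNA library mixed with 1 nM active affinity-purified piRISC holding one synthetic guide, with or without 500 nM GTSF1 partner protein, in HEPES–potassium acetate buffer at 33 °C for 0–8 or 0–960 min. Three trials were pooled and k3 was capped at 0.0001 min^-1.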
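Also: 1 nM active piRISC with 0.1 nM target library at 33 °C single turnover.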

Compared with GGAGACCUAUGUAUACAACCAAGUACCUCA, GGAGAGGAUACUAUACAACCUAGUACCUCA is higher in “pre-steady-state target cleavage rate” value: 0.0024 ± 0.0022 for the first, 0.145 ± 0.031 for the second.

First: GCUCUGGAUACUAUACAACCUUCUACGUCA
Second: GGACUGGAUACUAAACAACCUACUACCUGA
The “pre-steady-state target cleavage rate” value of the first is lower: 0.436 ± 0.034 for the first, 0.689 ± 0.14 for the second.

First: GGAGUGGAUACUAUACAACCUACUAUCUCA
Second: GGAGACCUUAUAUACAACCUACUACCUCA
The “pre-steady-state target cleavage rate” value of the first is higher: 0.972 ± 0.1 for the first, 0.0811 ± 0.0097 for the second.

Compared with GGAGACCAUACUAUCAACCUACUACCUCA, GGAGACCUAUGAUAUGAACGUACUACCUCA is lower in “pre-steady-state target cleavage rate” value: 1.08 ± 0.099 for the first, < 0.0001 for the second.

Going from GCUCUGGAUACUAUACAACCUUCUACCACA to GGAGACCUUACUAUACAAGCUUCUACCUCA, the “pre-steady-state target cleavage rate” value falls from 0.666 ± 0.042 to 0.0715 ± 0.011.

Going from GGAGUGUGAUACUAUACAACCUACUACCUCA to GGAGACGAUACUAUACAACCUACUACUCA, the “pre-steady-state target cleavage rate” value falls from 1.81 ± 0.1 to 0.62 ± 0.04.

GGAGACGAUACUAAACAAGCUACUACCUCA and GGUCUGGAUACUUUACAACGUACUACCUCA are within error of each other in “pre-steady-state target cleavage rate” value: 0.959 ± 0.047 for the first, 0.889 ± 0.062 for the second.

Compared with GGAGACCAUACUAUACAACCUAGCUACCUCA, GGAGACCAAACUAUACAACCUACUAGCUCA is higher in “pre-steady-state target cleavage rate” value: 0.174 ± 0.016 for the first, 0.465 ± 0.071 for the second.

First: GGUCUGGAUACUCUACAACCUACUACCUCA
Second: GGAGACCUAUCUAUACAACGUUCUACCUCA
The “pre-steady-state target cleavage rate” value of the first is higher: 1.56 ± 0.082 for the first, 0.00333 ± 0.0029 for the second.

Going from GGAGACCAUUCUAUACAUCCUACUACCUCA to GGAGUGGAUACUAUACAACGUAGUACCUCA, the “pre-steady-state target cleavage rate” value falls from 0.728 ± 0.061 to 0.183 ± 0.033.

Compared with GGAGACCAUACUAAACAACCUUCUACCUCA, GGAGACCUUACUAUAGAACCUUCUACCUCA is lower in “pre-steady-state target cleavage rate” value: 0.364 ± 0.034 for the first, 0.176 ± 0.022 for the second.

Compared with GGAGACCAUACUAUAGAAGCUACUACCUCA, GCUCUGGAUACUAUUCUACCUACUACCUCA is higher in “pre-steady-state target cleavage rate” value: 0.242 ± 0.027 for the first, 1.24 ± 0.1 for the second.

Compared with GCUCUGGUUUCUAUACAACCUACUACCUCA, GGUGUGGAUACUAUACAACCUACUACCACA is lower in “pre-steady-state target cleavage rate” value: 2 ± 0.12 for the first, 0.454 ± 0.048 for the second.

CCUCUGGACACUAUACAACCUACUACCUCA and GCUCUGGAAUACUAUACAACCUACUACCUCA are within error of each other in “pre-steady-state target cleavage rate” value: 1.75 ± 0.091 for the first, 1.92 ± 0.1 for the second.

Going from GGAGACGAAACUAUACAACCUACUUCCUCA to GGAGACCAUACUAUACAACCCACUACCUCA, the “pre-steady-state target cleavage rate” value rises from 0.25 ± 0.048 to 0.675 ± 0.031.

Compared with GGAGACGAUAUCUAUACAACCUACUACCUCA, GCUCUGGAUAGUAUACAACCUAGUACCUCA is lower in “pre-steady-state target cleavage rate” value: 1.01 ± 0.064 for the first, 0.296 ± 0.048 for the second.

First: GGAGAGGAUACUAUACAACCUACUACCUGA
Second: CCUCUGGAAACUAUACAACCUACUACCUGA
The “pre-steady-state target cleavage rate” value of the first is lower: 0.377 ± 0.04 for the first, 0.67 ± 0.083 for the second.

First: CCUCUGGAUACUAUAGAACCUACUACCUGA
Second: GGUCUGGAUACAAUACAACGUACUACCUCA
The “pre-steady-state target cleavage rate” value of the first is lower: 0.158 ± 0.033 for the first, 0.837 ± 0.058 for the second.

Going from GGUCUGGAUACUAUACAACCAAGUACCUCA to GGUCUGGAUUCUAUACAACCUACUACGUCA, the “pre-steady-state target cleavage rate” value rises from 0.0286 ± 0.0051 to 0.667 ± 0.052.

Compared with GGAGACCUAUCUAUACAACGCUACUACCUCA, GGAGACGAUACUAAACAACGUACUACCUCA is higher in “pre-steady-state target cleavage rate” value: < 0.0001 for the first, 0.614 ± 0.047 for the second.
